# From PubChem BioAssay AID493208 (National Center for Advancing Translational Sciences (NCATS), 2011)
# In all, about 44,000 compounds went through this assay and about 340 (0.77%) were called active. Inconclusive results (about 5%) are left out. Calls follow the shape of the dose curve; as a rule, active = well fitted inhibition curve with a large enough effect; inconclusive = small, poorly fitted or top-dose-only effect; inactive = flat fitted curve, though single readings scatter. Some of the results follow.
# Assay: Acumen qHTS Assay for Inhibitors of the mTORC1 Signaling Pathway in MEF (Tsc2-/-, p53-/-) Cells: Sytravon;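 also: plate controls were DMSO for no effect and rapamycin for full effect; nearly all actives have a fitted effect of over 50% in size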
# Conditions: phospho-rpS6 immunofluorescence/PI, 24 h; series mostly up to 38.3 µM; activity change, negative = inhibition: at the top concentration
# In short: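 Read-out: phospho-S6 Alexa-488 intensity over PI intensity per well, scored as % active cells using thresholds from rapamycin (7.5 nM) and DMSO controls. Tsc2-/-, p53-/- MEFs exposed to compound for 24 h; PI cell count recorded as viability.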
row,SMILES,"activity change, negative = inhibition"
1,CNC(=O)c1ccc(NC(=O)COc2ccc(-c3nn(C)c(=O)c4ccccc34)cc2)cc1,inactive: -17.8%
2,CCCCN(C)C(=O)Cn1cnc2sc(C)c(S(=O)(=O)N3CCN(c4ccccc4OC)CC3)c2c1=O,inactive: -5.62%
3,Cc1ccc(OCC(=O)N(Cc2sccc2C)C2CCS(=O)(=O)C2)cc1 (configuration not stated),inactive: -5.69%
4,Cc1ccc2onc(CC(=O)N3CCN(c4cccc(C)c4C)CC3)c2c1,inactive: 7.52%
5,CCOc1ccc(NC(=O)Cn2c(CCC(=O)O)ccc2-c2ccc(C)cc2)cc1,inactive: 1.23%
6,Clc1ccc(Nc2nc(-c3ccccc3)c3cc(Cl)ccc3n2)cc1,inactive: 5.31%
7,COc1ccc(-c2noc(CSc3nnc(-c4ccncc4)n3-c3ccc(C)c(C)c3)n2)cc1,inactive: -4.81%
8,COc1cc(NC(=O)CC(C)S(=O)(=O)c2cc3c4c(c2)CCN4C(=O)CC3)cc(OC)c1 (configuration not stated),inactive: 9.02%
9,Cc1ccccc1C(=O)Nc1cccc(C(=O)OCc2cc(=O)n3nc(C4CC4)sc3n2)c1,inactive: 5.36%
10,COc1ccc(Cn2c(CO)cnc2SCC(=O)NCc2ccco2)cc1,inactive: -0.913%
11,Cc1ccc(C)c(CN2C(=O)c3ccccc3Sc3ccc(C(=O)NCc4ccc5c(c4)OCO5)cc32)c1,inactive: -9.86%
12,COc1ccc(NC(=O)c2c(NC(=O)c3cccc(C)c3)sc3c2CCCC3)cc1,inactive: -13.1%
13,COc1cc2nc(SCC(=O)Nc3cccc(C)c3)n3nc(-c4ccccc4)nc3c2cc1OC,inactive: -17.6%
14,Cc1ccc([N+](=O)[O-])cc1S(=O)(=O)N1CCn2cccc2C1c1ccc(F)c(F)c1 (configuration not stated),inactive: -1.94%
15,COc1ccc(-c2nc(Cn3c(SCc4ccc(F)cc4)nc4cccnc43)c(C)o2)cc1,inactive: -2.29%
16,CC(=O)c1cccc(NC(=O)c2ccc3nc(C(C)C)oc3c2)c1,inactive: -1.77%
17,CCOC(=O)c1cc(-c2ccc(OC)cc2)nn1Cc1ccccc1,inactive: -3.69%
18,Cc1ccc(CSc2nc3c(c(=O)[nH]2)C(c2cccc(F)c2F)CC(=O)N3)cc1 (configuration not stated),inactive: -0.169%
19,Cc1ccc(C)c(Nc2nnc(-c3ccc(C)c(S(=O)(=O)N4CCCCC4)c3)c3ccccc23)c1,inactive: 20.9%
20,COc1ccc(N2CCN(C(=O)c3nn(-c4ccc(C)cc4)c(=O)n(C)c3=O)CC2)cc1,inactive: -1.15%
21,COc1cc2ncc3c(-c4ccccc4)nn(-c4ccc(C)cc4)c3c2cc1OC,inactive: 9.79%
22,CC(C)c1ccc(NC(=O)C(Cc2ccccc2)NS(=O)(=O)c2ccc3c(c2)CCC(=O)N3)cc1 (configuration not stated),inactive: 1.53%
23,COc1cccc(CNC(=O)CN(C)S(=O)(=O)c2ccc3c(c2)c(=O)n(C)c(=O)n3C)c1,inactive: -4.34%
24,Cn1nnnc1SCCNCc1ccccc1Cl,inactive: -18.3%

row,SMILES,"activity change, negative = inhibition"
1,Cc1ccc(OCC(=O)Nc2ccc3nc(SCC(=O)N(C)c4ccccc4)sc3c2)cc1,inactive: -2.46%
2,COc1ccc(NC(=O)c2sc3nc[nH]c(=O)c3c2C)cc1OC,inactive: -0.452%
3,N#C/C(=C\c1ccc(-c2ccc(C(=O)O)cc2)o1)c1nc2ccccc2[nH]1,inactive: -10.3%
4,COc1ccc(Cl)cc1NC(=O)Cn1cc(S(=O)(=O)Cc2cccc(Cl)c2)c2ccccc21,inactive: -9.49%
5,CCc1ccccc1Nc1nn2c(=O)c3ccc(C(=O)NCc4ccccc4Cl)cc3nc2s1,inactive: 0.949%
6,CCCCOc1ccc(C(=O)N(Cc2nc(-c3ccc(Cl)cc3)no2)C(C)C)cc1,inactive: 6.3%
7,Cc1ccc(Cn2c(C)c(CNCc3ccc(OC(C)C)cc3)c(C(=O)O)c2C)cc1,inactive: -3.35%
8,COc1ccc(CC(=O)NCCc2sc(-c3cccc(F)c3)nc2C)cc1,inactive: 1.03%
9,CCOc1ccc(CCNC(=O)c2ccc(CS(=O)Cc3ccc(Cl)cc3)o2)cc1 (configuration not stated),inactive: -7.07%
10,Cn1c(=O)oc2cc(S(=O)(=O)N3CCC(C(=O)N4CCN(c5cccc(Cl)c5)CC4)CC3)ccc21,inactive: -16.5%
11,CN1CCc2c(sc3c2C(=O)NC(c2ccc(OC(=O)c4ccc(Cl)cc4)cc2)N3)C1 (configuration not stated),inactive: 3.51%
12,CC(=O)N1CCc2cc(Br)cc(S(=O)(=O)CCC(=O)NCCc3ccc(Cl)cc3)c21,inactive: 1.47%
13,CCc1ccccc1Nc1sc(C(=O)c2ccccc2)c(N)c1S(=O)(=O)c1ccccc1,inactive: -8.12%
14,CCCCN(CC)C(=O)CSc1nc2c(sc3ccccc32)c(=O)n1CCc1ccccc1,inactive: -13.6%
15,CN(C)C(=O)c1ccc(S(=O)(=O)NCc2ccc(Cl)cc2)s1,inactive: 22.8%
16,CCc1ccccc1NC(=O)Cn1c(=O)n(-c2ccc(C)cc2)c(=O)c2cc(OC)c(OC)cc21,inactive: -0.0262%
17,COC(=O)c1scc(-c2ccc(C)cc2)c1S(=O)(=O)N1CCN(c2cccc(Cl)c2)CC1,inactive: -5.08%
18,CCN(CCCNC(=O)Cn1ncc2c([nH]c3ccccc32)c1=O)c1cccc(C)c1,inactive: -3.68%
19,Cc1ccc(S(=O)(=O)c2nc(-c3cccs3)oc2N2CCC(C)CC2)cc1,inactive: -13.8%
20,Cn1c(=O)sc2cc(NS(=O)(=O)c3ccc(C(C)(C)C)cc3)ccc21,inactive: -0.025%
21,CC(=O)N1CCc2c(sc3c2c(=O)n(-c2ccccc2C)c(=O)n3CC(=O)Nc2ccccc2)C1,inactive: 3.16%
22,Cc1c(C(=O)Nc2c(F)cccc2F)sc2ncn(Cc3ccccc3F)c(=O)c12,inactive: -4.18%
23,COc1ccc(C(=O)NCc2cn3ccc(C)cc3n2)cc1,inactive: -0.127%
